# Where “and” joins values, the source holds several entries; their conditions need not be identical. Equal values may be shown once. Inconclusive means that the source gave no clear call. Such entries were picked first, then a sample of the others. For some of these results: Potencies beside an inconclusive call are fits to weak or partial responses and may not hold up. Calls of active or inactive are those of the source. Unless noted, calls follow the shape of the dose curve; as a rule, active = well fitted curve in the direction sought with a large enough effect; inconclusive = small, poorly fitted or top-dose-only effect, or another doubt; inactive = no such curve, though single readings can be large; an effect the other way counts as inactive or inconclusive.
# Columns and labels:
# [1] = qHTS Assay for Identifying Gametocytocidal Compounds (AID 743244); also: potency is read from the fitted curve at half-maximal effect;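 as to max response: % is scaled to controls: 0 for no effect and ±100 for the full control effect; actives lower the fluorescent signal which means gametocytes are killed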; details: P. falciparum 3D7 stage III-V gametocytes, alamarBlue, 72 h; max response: stronger effect = lower value
# Method in brief: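 Viability read-out was resazurin reduction (alamarBlue, 24 h) measured at Ex 525/Em 598 nm. Beforehand, late-stage (III-V) 3D7 P. falciparum gametocytes at 20,000 cells/well were incubated with compound 72 h at 37C under 5% CO2.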
# [2] = qHTS Screen of the MIPE 4.0 Collection Against Ewings Sarcoma (RDES) (AID 1259252); also: nearly all actives have a fitted effect of over 35% in size; also: potency is read from the fitted curve at half-maximal effect
# Method in brief: (§1)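 Log-phase cells in RPMI with 5% FBS attached for 4 h, then received compounds as a titration for 48 h at 37C, 5% CO2. Viability was read by CellTiter-Glo luminescence and normalized to DMSO and no-cell wells.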
# [3] = qHTS Screen of the MIPE 4.0 Collection Against Ewings Sarcoma (TC71) (AID 1259253); also: nearly all actives have a fitted effect of over 40% in size; also: potency is read from the fitted curve at half-maximal effect
# Method in brief: as §1
# [4] = qHTS Screen of the MIPE 4.0 Collection Against Ewings Sarcoma (EW8) (AID 1259255); also: nearly all actives have a fitted effect of over 35% in size; also: potency is read from the fitted curve at half-maximal effect
# Method in brief: as §1
# [5] = P-glycoprotein substrates identified in KB-8-5-11 adenocarcinoma cell line, qHTS therapeutic library screen (AID 1346987); also: nearly all actives have a fitted effect of over 65% in size; also: potency is read from the fitted curve at half-maximal effect
# Method in brief: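 KB-8-5-11, a colchicine-selected P-gp-overexpressing KB-3-1 subline, was grown without colchicine for the assay. Cells were seeded at 500 cells/well, dosed in concentration-response and incubated 72 h at 37 degree C, 5% CO2. Viability was read by CellTiter-Glo luminescence.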
# [6] = qHTS Screen of the MIPE 4.0 Collection Against Ewings Sarcoma (TC32) (AID 1259256); also: nearly all actives have a fitted effect of over 45% in size; also: potency is read from the fitted curve at half-maximal effect
# Method in brief: as §1
# [7] = Natriuretic polypeptide receptor (hNpr1) antagonism - Pilot counterscreen GloSensor control cell line (AID 1347045; calls by dose curve; also: series mostly up to about 38 µM; % is scaled to controls: 0 for no effect and ±100 for the full control effect)
# Method in brief: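 HEK293 cGMP GloSensor cells preloaded 2 h with 2% GloSensor reagent, then compound 30 min before baseline luminescence read. Stimulated with 50 uM sodium nitroprusside, 20 min at room temperature, then read again; counterscreen for Npr1 antagonism.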
# [8] = qHTS assay to identify small molecule inhibitors of chordoma cells - UCH-1 (AID 1259355); also: % is scaled to controls: 0 for no effect and ±100 for the full control effect; nearly all actives have a fitted effect of over 55% in size
# Method in brief: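 Cells (800/well) were seeded and left overnight at 37 C, 5% CO2, then treated with drugs at 15 concentrations plus a combination mix of auranofin, camptothecin, doxorubicin, rubitecan and topotecan. Viability after 48hr was read by CellTiter-Glo luminescence.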
# [9] = P-glycoprotein substrates identified in KB-3-1 adenocarcinoma cell line, qHTS therapeutic library screen (AID 1346986);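 also: potency is read from the fitted curve at half-maximal effect; potency is for cytotoxicity meaning loss of cell viability; nearly all actives have a fitted effect of over 60% in size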
# Method in brief: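 KB-3-1 parental and colchicine-selected P-gp-overexpressing KB-8-5-11 cells (colchicine omitted during assay), 500 cells/well, dosed in dose-response for 72 h at 37 °C; CellTiter-Glo luminescence. Cytotoxic: curve class -1.1 to -2.4, max response >50%, AC50 < 10 uM.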
# Tags tell the direction and shape of the fitted curve.
smiles,measurement,setting,value
Cc1nnc(C(C)C)n1C1C[C@H]2CC[C@@H](C1)N2CC[C@H](NC(=O)C1CCC(F)(F)CC1)c1ccccc1 (stereo not given in full),Potency,[1],"inconclusive: 3.16 µM [inhibitor, single point]"
same,Potency,[2],"inconclusive: 33.2 µM [inhibitor, single point]"
same,Potency,[3],"inconclusive: 37.2 µM [inhibitor, single point]"
same,Potency,[4],"inconclusive: 33.2 µM [inhibitor, single point]"
CN(C)CCOc1cc(-c2cn[nH]c2)ccc1NC(=O)C1COc2ccccc2O1 (stereo not given),Potency,[2],active: 14.8 µM
same,Potency,[3],"inconclusive: 16.6 µM [inhibitor, partial curve]"
same,Potency,[4],"inconclusive: 18.7 µM [inhibitor, partial curve, poor fit]"
same,Potency,[5],"inactive and inconclusive: 18.4 µM [inhibitor, single point]"
CC(C)C(C)C=CC(C)C1CCC2C3=CC=C4CC(O)CCC4(C)C3CCC21C (stereo not given),Potency,[2],"inconclusive: 23.5 µM [inhibitor, single point]"
same,Potency,[3],"inconclusive: 26.4 µM [inhibitor, single point]"
same,Potency,[6],inactive
CC1(C)O[C@@H]2C[C@H]3[C@@H]4CCC5=CC(=O)C=C[C@]5(C)[C@@H]4[C@@H](O)C[C@]3(C)[C@]2(C(=O)CO)O1,Potency,[2],inactive
same,Potency,[3],inactive
same,Potency,[6],inactive
N#Cc1cc(NC(=O)Nc2nnc(-c3ccncc3)s2)ccc1-c1cn[nH]c1,Potency,[2],inactive
same,Potency,[3],inactive
same,Potency,[6],inactive
O=c1ccn([C@@H]2O[C@H](CO)[C@H](O)[C@H]2O)c(=O)[nH]1,Potency,[2],"inconclusive: 14.8 µM [inhibitor, partial curve, poor fit]"
same,Potency,[3],"inconclusive: 29.6 µM [inhibitor, partial curve, poor fit]"
same,Potency,[6],inactive
O=C(C1CCCCC1)N1CC(=O)N2CCc3ccccc3C2C1 (stereo not given),Potency,[2],"inconclusive: 29.6 µM [inhibitor, single point]"
same,Potency,[3],"inconclusive: 37.2 µM [inhibitor, partial curve, poor fit]"
same,Potency,[4],inactive
same,Potency,[5],"inconclusive: 9.2 µM [inhibitor, partial curve]"
same,Potency,[7],inactive
CNS(=O)(=O)Cc1ccc2[nH]cc(CCN(C)C)c2c1,Potency,[2],inactive
same,Potency,[3],inactive
same,Potency,[6],inactive
same,Potency,[5],inactive
CC(C)NCC(O)c1ccc(NS(C)(=O)=O)cc1 (stereo not given),Potency,[2],active: 5.9 µM
same,Potency,[3],active: 16.6 µM
same,Potency,[6],"inconclusive: 37.2 µM [inhibitor, single point]"
same,Potency,[8],inactive
C[C@H]1[C@H](NC(=O)C(=NOC(C)(C)C(=O)O)c2csc(N)n2)C(=O)N1S(=O)(=O)O,Potency,[2],"inconclusive: 20.9 µM [inhibitor, partial curve, poor fit]"
same,Potency,[3],inactive
same,Potency,[6],"inconclusive: 18.7 µM [inhibitor, partial curve, poor fit]"
CC(C)[C@H](N)C(=O)OCCOCn1cnc2c(=O)[nH]c(N)nc21,max response,[1],inactive: 18.3%
same,Potency,[2],"inconclusive: 33.2 µM [inhibitor, partial curve, poor fit]"
same,Potency,[3],inactive
same,Potency,[8],inactive
Cc1cc(=O)oc2cc(O)ccc12,Potency,[2],"inconclusive: 20.9 µM [inhibitor, single point]"
same,Potency,[3],"inconclusive: 23.5 µM [inhibitor, single point]"
same,Potency,[6],inactive
CC(C)(C)c1nc(-c2cccc(NS(=O)(=O)c3c(F)cccc3F)c2F)c(-c2ccnc(N)n2)s1,Potency,[2],active: 6.62 µM
same,Potency,[3],"inconclusive: 5.26 µM [inhibitor, partial curve, poor fit]"
same,Potency,[6],"inconclusive: 10.5 µM [inhibitor, partial curve, poor fit]"
same,Potency,[9],"inconclusive: 25.9 µM [inhibitor, single point]"
same,Potency,[5],"inconclusive: 23.5 µM [inhibitor, single point] and inconclusive: 29.1 µM [inhibitor, single point]"
CNC(=O)c1ccc2cc(C3(O)CCn4cncc43)ccc2c1 (stereo not given),Potency,[2],"inconclusive: 23.5 µM [inhibitor, single point]"
same,Potency,[3],"inconclusive: 16.6 µM [inhibitor, partial curve, poor fit]"
same,Potency,[6],"inconclusive: 16.6 µM [inhibitor, partial curve, poor fit]"
CC(C)NCC(O)COc1ccc(COCCOC(C)C)cc1 (stereo not given),Potency,[2],inactive
same,Potency,[3],inactive
same,Potency,[6],inactive
same,Potency,[5],"inactive and inconclusive: 14.6 µM [inhibitor, single point]"
